# PubChem BioAssay AID1347165 (National Center for Advancing Translational Sciences (NCATS), 2019)
# Hit rate of the full screen: of about 220,000 compounds, about 5,700 (2.6%) were called active. The shares of active, inactive and inconclusive entries below differ from those in the screen. Calls come from the whole dose curve; as a rule, active = well fitted inhibition curve with a large enough effect; inconclusive = small, poorly fitted or top-dose-only effect; inactive = no such curve, though single readings can be large or run the other way. Potencies beside an inconclusive call are fits to weak or partial responses and may not hold up.
# Molecular target: Lysine-specific demethylase 5B (Homo sapiens) (UniProt Q9UGL1)
# Experiment: Primary screen for KDM5B Histone Demethylases FDH-coupled qHTS; note: nearly all actives have a fitted effect of over 70% in size; for activity change, negative = inhibition: 0% is about no effect
# Conditions: FDH-coupled NADH fluorescence (FDH is formaldehyde dehydrogenase); activity change, negative = inhibition: at 57.7 µM (top of the series) unless noted
# How it was run: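 Compound dilutions met 200 nM (final) KDM5BΔAP for 10 min at room temperature before substrate addition. The substrate mix held 12.5 µM H3K4me3 with cofactors 25 µM α-ketoglutarate and 50 µM Fe²⁺. NADH signal gain over 30 min defined activity.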
# Potency is the fitted concentration of half-maximal effect; tags give direction and shape of the fitted curve.
# Sequence of UniProt Q9UGL1 (Q9UGL1 whole entry, looked up): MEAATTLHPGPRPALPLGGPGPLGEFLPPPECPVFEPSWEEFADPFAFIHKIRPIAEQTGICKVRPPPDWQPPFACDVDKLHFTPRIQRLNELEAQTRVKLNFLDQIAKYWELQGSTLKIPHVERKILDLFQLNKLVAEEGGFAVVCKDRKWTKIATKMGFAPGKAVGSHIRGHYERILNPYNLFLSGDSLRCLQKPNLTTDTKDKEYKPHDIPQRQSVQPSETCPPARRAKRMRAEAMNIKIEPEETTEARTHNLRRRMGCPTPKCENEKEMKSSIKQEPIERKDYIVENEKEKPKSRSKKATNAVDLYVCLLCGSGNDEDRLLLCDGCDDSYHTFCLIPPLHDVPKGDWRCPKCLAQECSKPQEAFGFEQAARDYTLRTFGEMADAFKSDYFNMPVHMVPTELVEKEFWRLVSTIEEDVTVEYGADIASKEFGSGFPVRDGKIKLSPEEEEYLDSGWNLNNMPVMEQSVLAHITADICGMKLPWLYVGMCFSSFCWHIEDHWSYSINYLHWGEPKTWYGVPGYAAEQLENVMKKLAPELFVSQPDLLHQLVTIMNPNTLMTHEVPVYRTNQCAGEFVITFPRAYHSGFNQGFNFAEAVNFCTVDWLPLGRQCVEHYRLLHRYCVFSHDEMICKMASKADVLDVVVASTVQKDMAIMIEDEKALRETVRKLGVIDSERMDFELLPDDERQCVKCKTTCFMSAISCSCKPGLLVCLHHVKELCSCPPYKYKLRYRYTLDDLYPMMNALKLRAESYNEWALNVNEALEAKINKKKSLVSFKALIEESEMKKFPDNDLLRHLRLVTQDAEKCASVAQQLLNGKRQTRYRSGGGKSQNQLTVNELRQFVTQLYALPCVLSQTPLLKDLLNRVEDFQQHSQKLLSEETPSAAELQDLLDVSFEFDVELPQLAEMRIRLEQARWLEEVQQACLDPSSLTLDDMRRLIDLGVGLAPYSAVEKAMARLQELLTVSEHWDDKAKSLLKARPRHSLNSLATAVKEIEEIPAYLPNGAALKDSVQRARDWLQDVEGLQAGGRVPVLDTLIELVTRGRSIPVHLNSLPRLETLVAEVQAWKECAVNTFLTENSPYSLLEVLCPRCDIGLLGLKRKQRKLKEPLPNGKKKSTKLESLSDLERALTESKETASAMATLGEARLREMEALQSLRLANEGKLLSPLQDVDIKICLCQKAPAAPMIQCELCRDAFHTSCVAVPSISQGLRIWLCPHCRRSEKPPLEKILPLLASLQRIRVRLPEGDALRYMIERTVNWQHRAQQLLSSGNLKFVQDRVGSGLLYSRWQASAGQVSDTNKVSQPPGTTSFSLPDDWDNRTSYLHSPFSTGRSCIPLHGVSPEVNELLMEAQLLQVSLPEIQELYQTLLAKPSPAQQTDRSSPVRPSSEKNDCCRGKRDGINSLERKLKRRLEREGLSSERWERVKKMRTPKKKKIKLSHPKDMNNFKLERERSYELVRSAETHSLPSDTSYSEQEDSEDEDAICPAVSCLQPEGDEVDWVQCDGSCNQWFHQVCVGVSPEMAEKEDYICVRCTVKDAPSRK
SMILES,"activity change, negative = inhibition",Potency
O=C(O)c1ccc(COc2ccc(Cl)cc2Cl)cc1,inactive: 24.1%,–
CCCOc1c(Cl)cc(/C=C(/C#N)C(=O)OC)cc1OCC,inactive: 9.23%,–
CC(C)n1cnnc1CC1CCCNC1 (configuration not stated),–,"inconclusive: 2.51 µM [inhibitor, full curve, poor fit]"
O=S(=O)(c1cc(Cl)ccc1Cl)N1CCCC1c1nnc2ccccn12 (configuration not stated),inactive: 0.42%,–
CCN(c1ccc(OC)cc1)S(=O)(=O)c1nnc(NC(=O)c2ccccc2Cl)s1,inconclusive: -32.6% [inhibitor],–
Clc1ccc(C2Cc3ccccc3N2)cc1 (configuration not stated),–,"inconclusive: 39.8 µM [inhibitor, single point]"
COCCn1c(=O)n([C@H]2CCCN(C(=O)c3cc(C)nn3C)C2)c2ncccc21,inactive: 0.627%,–
Cc1cc2cc(-c3c(C)noc3C)nc(-c3cccc([S+](C)(=O)[O-])c3)c2o1,–,active: 31.6 µM
Cc1ccc(N2CC(C)Cn3c2nc2c3c(=O)n(CC(=O)O)c(=O)n2C)cc1 (configuration not stated),–,"inconclusive: 14.1 µM [inhibitor, partial curve, poor fit]"
COc1ccc(-c2nc(C3CC3)nc3c2CCN(CC2CC2)CC3)cc1,–,"inconclusive: 56.2 µM [inhibitor, partial curve, poor fit]"
Nc1nc(-c2cc3c4c(c2)CC(=O)N4CCC3)cs1,inactive: -16.1%,–
COc1ccc(-c2noc([C@@H]3C[C@@H](O)CN3Cc3ccccn3)n2)cc1,–,"inconclusive: 39.8 µM [inhibitor, partial curve, poor fit]"
C=Cc1ccc(CSc2nc(-c3ccccc3Cl)nc3c2Cc2c(CO)cnc(C)c2O3)cc1,–,"inconclusive: 17.8 µM [inhibitor, partial curve, poor fit]"
N#Cc1ccc(CN2CC[C@H](c3nnc(-c4ccccc4)o3)C2)cc1,inactive: -21% [at 86.2 µM],–
CC(C)c1ccc(C(=O)Nc2cc(C(F)(F)F)ccc2Cl)cc1,inactive: 6.3%,–
CCOc1ccc(-c2nc(C3CC(=O)N(c4ccc(F)cc4)C3)no2)cc1 (configuration not stated),–,"inconclusive: 25.1 µM [inhibitor, partial curve, poor fit]"
COc1ccc(NC(=O)c2ccc3c(c2)N(C)C2CCCCCN2C3=O)cc1OC (configuration not stated),–,"inconclusive: 28.2 µM [inhibitor, partial curve, poor fit]"
O=C(Nc1cccc(-c2ccc(N3CCCC3)nn2)c1)Nc1cc(F)ccc1F,–,"inconclusive: 28.2 µM [inhibitor, partial curve, poor fit]"
COc1ccc(C(C)=O)cc1COC(=O)c1cc(=O)c2ccccc2o1,–,"inconclusive: 10 µM [inhibitor, partial curve, poor fit]"
COc1cc2c(c(OC)c1)C(c1ccc(F)c(Br)c1)C1=C(CCCC1=O)N2 (configuration not stated),–,"inconclusive: 6.31 µM [inhibitor, full curve, poor fit]"
O=C(c1ccccc1F)N1CCN(Cc2c[nH]c3ccccc23)CC1,–,"inconclusive: 25.1 µM [inhibitor, single point]"
COc1ccc(OC)c(-c2nc3cc4c(cc3cc2CN2CCCOCC2)OCO4)c1,–,"inconclusive: 25.1 µM [inhibitor, partial curve, poor fit]"
Cc1cccc(Nc2ccccc2C(=O)NCc2cccs2)c1C,inactive: 67.5%,–

SMILES,"activity change, negative = inhibition",Potency
N#CCCSc1sc(=S)sc1SCc1cc(C(F)(F)F)cc(C(F)(F)F)c1,–,"inconclusive: 17.8 µM [inhibitor, partial curve, poor fit]"
O=C(COC(=O)c1cccs1)c1ccc(OCc2ccccc2)cc1,inactive: -3.46%,–
S=C(NCCc1ccccc1)Nc1cccc(Cl)c1,–,"inconclusive: 39.8 µM [inhibitor, single point]"
CN(C)c1nc(N(C)C)nc(-n2cnc(SCc3ccccc3)n2)n1,inactive: 21.5%,–
Fc1ccccc1/C=N/NC(=S)NCc1ccccc1,inactive: 9.34%,–
Cc1cccc(C(=O)N2C[C@@H](F)C[C@H]2C(=O)N2CCc3ccccc3C2)c1,–,"inconclusive: 28.2 µM [inhibitor, partial curve, poor fit]"
Cc1ccc(NS(=O)(=O)c2ccc3[nH]c4c(c3c2)CCCCCC4)cc1Cl,–,"inconclusive: 14.1 µM [inhibitor, partial curve, poor fit]"
Cc1cc2oc(=O)cc(CSc3nncn3C)c2cc1C(C)C,inactive: -10.2%,–
CCn1c(C)c(CCC(=O)NCCC2=NCc3ccccc32)c(=O)n2nc(-c3ccccc3OC)cc12,–,"inconclusive: 20 µM [inhibitor, partial curve, poor fit]"
Cc1c(C)c2ccc(OC(C)C(=O)NCc3cccnc3)cc2oc1=O (configuration not stated),–,"inconclusive: 25.1 µM [inhibitor, partial curve, poor fit]"
CC1CCCCN1CCCNC(=O)c1cc(C2CC2)nc2ccccc12 (configuration not stated),inactive: -22.9%,–
CCN(CC)C(=O)C(C)[C@@H]1CC[C@@]2(C)CC[C@H](NC(=O)c3cnccn3)[C@@H](C)[C@@H]2[C@H]1O (some centres not stated),–,"inconclusive: 17.8 µM [inhibitor, partial curve]"
CN1C(=O)CS(=O)(=O)C12CCN(C(=O)COc1ccc(Cl)cc1)CC2,inactive: 7.78%,–
COc1ccc(CC(=O)N2CCCN(c3cc(-c4ccc(Cl)cc4)[nH]n3)CC2)cc1,–,"inconclusive: 15.8 µM [inhibitor, partial curve, poor fit]"
Nc1nccnc1C(=O)NCCc1ccco1,–,"inconclusive: 22.4 µM [inhibitor, partial curve, poor fit]"
COc1ncccc1CN1CC[C@@H]2OCC(=O)N(c3ccccc3)[C@H]2CC1,–,"inconclusive: 50.1 µM [inhibitor, partial curve, poor fit]"
CC(C)OCCCNC(=O)CCCn1c(SCC(=O)c2ccc(F)cc2)nc2c(sc3ccccc32)c1=O,inconclusive: -33.9% [inhibitor],–
Cc1cc(=O)oc2cc(OC(C)C(=O)NC3CCN(Cc4ccccc4)CC3)ccc12 (configuration not stated),–,"inconclusive: 25.1 µM [inhibitor, partial curve, poor fit]"
CC(NC(=O)C1CCCCC1C(F)(F)F)C12CC3CC(CC(C3)C1)C2 (configuration not stated),inactive: 10.1%,–
O=C(Cn1c(=O)n(-c2ccccc2)c(=O)c2sc3ccccc3c21)N1CCCC1,–,"inconclusive: 11.2 µM [inhibitor, partial curve, poor fit]"
O=S(=O)(c1cccc(C(F)(F)F)c1)n1c(/C=C/c2ccccc2)nc2ccccc21,–,"inconclusive: 28.2 µM [inhibitor, partial curve, poor fit]"
COc1ccc2c(c1)nc1n2[C@@H](CNC(=O)c2ccc(Cl)cc2)COC1,–,"inconclusive: 31.6 µM [inhibitor, single point]"
Cc1cccc(N(C)C(=O)Cn2ccn3nc(-c4ccc(F)cc4)c(CO)c3c2=O)c1,inactive: -12%,–

SMILES,"activity change, negative = inhibition",Potency
CS(=O)(=O)N1CCCN(Cc2ccccc2C#N)CCNC(=O)CC1c1ccccc1 (configuration not stated),–,"inconclusive: 35.5 µM [inhibitor, single point]"
COCC(=O)Nc1ccc(-c2noc([C@@H]3CCCN3Cc3ccc(NC(C)=O)cc3)n2)cn1,inactive: -22.4%,–
CCC1=C(C(=O)OC)C(c2ccccc2OC)N2C(CC(=O)N3CC(C)OC(C)C3)=CSC2=N1 (configuration not stated),–,"inconclusive: 22.4 µM [inhibitor, single point]"
Cc1cc(N2CCCCC2)nc2ccc(NC(=O)c3cccc(F)c3)cc12,–,"inconclusive: 25.1 µM [inhibitor, single point]"
CSc1cccc(NC(=O)CN(c2ccccc2)S(=O)(=O)N(C)C)c1,inconclusive: -37.9% [inhibitor],–
CCN(CC)c1ccc(CNC(=O)c2cc3c(s2)CN(C(C)C)C3)cc1,–,"inconclusive: 28.2 µM [inhibitor, partial curve, poor fit]"
O=C(NCCc1cnc[nH]1)c1cc(-c2ccccc2F)cc2c1OCCN2Cc1cccnc1,–,active: 22.4 µM
CC(CCc1ccccc1)NC(=O)CSc1nc2cc(S(=O)(=O)N3CCOCC3)ccc2o1 (configuration not stated),inactive: 11.1%,–
COc1ccccc1C(=O)NC(=O)CSc1c(Cl)cccc1Cl,inactive: 23.7%,–
CCCC(=O)Nc1ccc2c(c1)nc(CCNC(=O)c1ccco1)n2C,inactive: 7.76%,–
O=C1OCC2(CCN(Cc3ccc4c(c3)CCO4)C2)N1Cc1ccccc1 (configuration not stated),–,"inconclusive: 35.5 µM [inhibitor, partial curve, poor fit]"
CC(NC(=O)CNC(=O)C1CCC(CNS(=O)(=O)c2ccc(Cl)cc2)CC1)c1ccccc1 (configuration not stated),inactive: 13.6%,–
CC1c2ccsc2CCN1C(=O)CNC(=O)c1ccc(Cl)cc1 (configuration not stated),inactive: 2.28%,–
COc1ccc(-c2cc(N3CCCC(NC(=O)c4cccc(C)c4)C3)n[nH]2)cc1 (configuration not stated),inactive: -2.76%,–
COCCCNC(=O)c1cc2c(=O)n3cccc(C)c3nc2s1,–,"inconclusive: 7.94 µM [inhibitor, partial curve, poor fit]"
O=C1CO[C@H]2CCN(Cc3ccncc3Cl)CC[C@@H]2N1c1ccccc1,–,"inconclusive: 31.6 µM [inhibitor, single point]"
COc1ccc(N2CCN(C3CCCN(C(=O)C(C)(C)N)C3)CC2)cc1 (configuration not stated),–,"inconclusive: 31.6 µM [inhibitor, partial curve, poor fit]"
O=S(=O)(NC[C@H]1O[C@@H](CO)[C@@H](O)[C@H]1N1CCN(c2ccccn2)CC1)c1ccc(Cl)cc1,–,active: 28.2 µM
Cc1c(C)n(Cc2ccc(Cl)cc2)c2ccc(C(=O)NCCc3ccc(S(N)(=O)=O)cc3)cc12,–,"inconclusive: 14.1 µM [inhibitor, partial curve, poor fit]"
Cc1cn2nc(C(=O)NCc3ccc(C(F)(F)F)cc3)cc2c(N2CCCC2)n1,–,active: 28.2 µM
CC1(c2ccc3ccccc3c2)NC(=O)N(CC(=O)Nc2ncccc2O)C1=O (configuration not stated),–,"inconclusive: 17.8 µM [inhibitor, partial curve, poor fit]"
